# Results as given in PubChem BioAssay AID504339 (National Center for Advancing Translational Sciences (NCATS), 2011).
# About 17,000 (4.4%) of roughly 390,000 compounds were called active. Inconclusive means that the source gave no clear call. Such entries were picked first, then a sample of the others. Calls come from the whole dose curve; as a rule, active = well fitted inhibition curve with a large enough effect; inconclusive = small, poorly fitted or top-dose-only effect; inactive = no such curve, though single readings can be large or run the other way. Where the call is inconclusive, the potency comes from a doubtful curve fit.
# Molecular target: Lysine-specific demethylase 4A (Homo sapiens) (UniProt O75164)
# UniProt O75164, sequence (O75164 whole entry, looked up, the tested form may be a part): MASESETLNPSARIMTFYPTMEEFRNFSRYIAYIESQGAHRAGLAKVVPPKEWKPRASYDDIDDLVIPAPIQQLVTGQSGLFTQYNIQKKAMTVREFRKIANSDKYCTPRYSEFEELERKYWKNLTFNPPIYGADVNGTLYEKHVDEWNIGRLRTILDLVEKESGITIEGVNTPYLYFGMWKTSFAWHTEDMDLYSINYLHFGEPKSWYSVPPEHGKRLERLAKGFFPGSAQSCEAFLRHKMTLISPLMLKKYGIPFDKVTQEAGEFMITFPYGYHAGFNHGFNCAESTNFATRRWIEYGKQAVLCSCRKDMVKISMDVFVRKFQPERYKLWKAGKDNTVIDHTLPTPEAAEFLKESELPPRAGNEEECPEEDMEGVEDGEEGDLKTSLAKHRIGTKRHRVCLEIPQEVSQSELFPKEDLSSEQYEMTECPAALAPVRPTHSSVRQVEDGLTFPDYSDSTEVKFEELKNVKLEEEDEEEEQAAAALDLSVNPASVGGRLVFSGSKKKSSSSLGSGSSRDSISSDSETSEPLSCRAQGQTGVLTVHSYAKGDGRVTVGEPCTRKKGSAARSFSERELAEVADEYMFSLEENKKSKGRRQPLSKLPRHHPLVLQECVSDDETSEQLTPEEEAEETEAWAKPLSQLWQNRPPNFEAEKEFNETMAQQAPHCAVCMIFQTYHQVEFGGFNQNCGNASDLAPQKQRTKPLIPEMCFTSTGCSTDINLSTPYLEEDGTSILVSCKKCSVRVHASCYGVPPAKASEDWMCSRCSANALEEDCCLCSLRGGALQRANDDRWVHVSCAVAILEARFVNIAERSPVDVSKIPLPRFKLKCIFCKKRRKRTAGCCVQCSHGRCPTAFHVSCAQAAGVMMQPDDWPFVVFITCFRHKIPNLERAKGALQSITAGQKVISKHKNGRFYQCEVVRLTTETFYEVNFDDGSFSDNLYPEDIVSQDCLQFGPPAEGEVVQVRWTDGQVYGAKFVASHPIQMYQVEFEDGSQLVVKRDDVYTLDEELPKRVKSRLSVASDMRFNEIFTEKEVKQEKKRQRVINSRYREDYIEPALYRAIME
# Test: qHTS Assay for Inhibitors of JMJD2A-Tudor Domain; note: nearly all actives have a fitted effect of over 50% in size
# Conditions: AlphaScreen JMJD2A-Tudor / H3K4me3 peptide binding; series mostly up to 114 µM
# Potency is the fitted concentration of half-maximal effect; tags give direction and shape of the fitted curve.
row,SMILES,Potency
1,COc1ccc(OC)c(-c2csc(N(Cc3ccco3)C(=O)c3cccs3)n2)c1,"inconclusive: 44.7 µM [inhibitor, partial curve, poor fit]"
2,CCn1c(O)c(N=NC(=O)CNc2ccc(C)cc2)c2ccccc21,active: 56.2 µM
3,O=[N+]([O-])c1cccc(Cl)c1NCCNS(=O)(=O)c1ccccc1,"inconclusive: 56.2 µM [inhibitor, partial curve]"
4,COc1ccc(NC(=O)CN(C)C(=O)CCCc2c[nH]c3ccccc23)cc1,"inconclusive: 56.2 µM [inhibitor, partial curve]"
5,COc1cccc(N2CCN(C(=O)c3ccc(Cn4c(=O)[nH]c5cc(OC)c(OC)cc5c4=O)cc3)CC2)c1,"inconclusive: 14.1 µM [inhibitor, full curve, poor fit]"
6,Cc1ccc(NC(=O)COC(=O)Cc2c[nH]c3ccccc23)cc1F,"inconclusive: 79.4 µM [inhibitor, partial curve]"
7,COc1ccc(-c2noc(N3CCC(C(=O)Nc4cc(OC)ccc4OC)CC3)n2)cc1,"inconclusive: 50.1 µM [inhibitor, partial curve]"
8,Cc1c(CNCCc2ccccc2)c(C(=O)O)c(C)n1-c1ccccc1,"inconclusive: 50.1 µM [inhibitor, partial curve]"
9,Cc1ccc(Sc2ncccc2/C=N/O)cc1,"inconclusive: 39.8 µM [inhibitor, single point]"
10,Cc1cc(Cl)c2oc(C(=O)N3CCCCC3CCN3CCCC3=O)c(C)c2c1 (stereo not given),inactive
11,CN1CCN(CC(=O)n2c3c(c4ccccc42)CCCC3)CC1,active: 56.2 µM
12,S=c1[nH]nc(COc2ccccc2)n1/N=C/c1cccc(Cl)c1Cl,"inconclusive: 56.2 µM [inhibitor, partial curve]"
13,Cc1cc(/C(=N/O)C(C)(C)NO)ccc1Cl,active: 20 µM
14,Cn1c(-c2ccc3c(c2)OCO3)cnc1NCc1cccc(O)c1,"inconclusive: 2 µM [inhibitor, full curve, poor fit]"
15,Cc1ccc(CNC(=O)CCS(=O)(=O)c2cc(Br)cc3c2N(C(=O)C2CC2)CC3)o1,inactive
16,CSc1ncccc1C(=O)NCC1CCCCC1,inactive
17,COc1c([N+](=O)[O-])cc(C(=O)NNC(=O)c2ccc(C)cc2)cc1[N+](=O)[O-],inactive
18,COc1ccc(/C=C(/NC(=O)c2ccccc2)C(=O)NC2CCS(=O)(=O)C2)cc1 (stereo not given),active: 14.1 µM
19,CCOC(=O)C1CCCC12Nc1cccc3cccc(c13)N2 (stereo not given),"inconclusive: 89.1 µM [inhibitor, partial curve]"
20,NC(=O)c1c(NC(=O)C2CCCO2)sc2c1CCCC2 (stereo not given),"inconclusive: 79.4 µM [inhibitor, single point]"
